At least one peptide structure holds a part that was inferred or is arguable (an end, a ring closure or a residue). Bridges are numbered along the chain shown (N, C = ends). Where no end group is shown, it is not given here.
Tests used:
[1] = test system: human lectin pathway; experiment: Human lectin pathway inhibition, C4 deposition ELISA on mannan in normal human serum; assay type: biochemical; details: for IC50: Human lectin pathway, C4 deposition, normalised IC50; for Relative potency: Human, relative to EVO2; for Relative potency (relative human lectin pathway inhibitory efficiency compared to EVO2): fold vs EVO2 = 1, human serum
[2] = test system: rat lectin pathway; experiment: Rat lectin pathway inhibition, C4 deposition ELISA on mannan in pooled rat serum; assay type: biochemical; details: for IC50: Rat lectin pathway, C4 deposition, normalised IC50; for Relative potency: Rat, relative to EVO2
[3] = target: T1, human MASP-2 catalytic fragment (Homo sapiens, UniProt O00187); experiment: Surface plasmon resonance kinetics and affinity on immobilized human MASP-2 catalytic fragment; assay type: binding; details: for koff / kon: Human MASP-2 catalytic fragment, SPR; for Relative affinity: Human, relative to EVO2
T1 construct: catalytic enzyme fragments containing the three C-terminal domains: CCP1-CCP2-SP; made in house

[4] = target: T2, rat MASP-2 catalytic fragment (Rattus norvegicus, UniProt Q9JJS8); experiment: Surface plasmon resonance kinetics and affinity on immobilized rat MASP-2 catalytic fragment; assay type: binding; details: for koff / kon: Rat MASP-2 catalytic fragment, SPR; for Relative affinity: Rat, relative to EVO2
T2 construct: starts with Gln298 and ends with Phe685 according to UniProt numbering (entry Q9JJS8); made in house

[5] = test system: complement lectin pathway; experiment: In vivo lectin pathway inhibition in rats, residual lectin pathway activity of serum samples ex vivo (C4b deposition); details: rat, 4.5 μmol/kg (about 32 mg/kg) iv + ip bolus

T1 sequence (O00187 445-686 limits assumed): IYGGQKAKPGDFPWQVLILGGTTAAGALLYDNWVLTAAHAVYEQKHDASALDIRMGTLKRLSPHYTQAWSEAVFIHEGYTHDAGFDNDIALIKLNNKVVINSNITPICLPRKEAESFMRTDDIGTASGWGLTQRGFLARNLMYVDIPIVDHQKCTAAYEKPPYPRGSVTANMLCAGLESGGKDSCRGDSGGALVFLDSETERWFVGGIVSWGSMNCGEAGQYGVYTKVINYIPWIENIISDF
T1 sequence (O00187 298-444 partner limits assumed): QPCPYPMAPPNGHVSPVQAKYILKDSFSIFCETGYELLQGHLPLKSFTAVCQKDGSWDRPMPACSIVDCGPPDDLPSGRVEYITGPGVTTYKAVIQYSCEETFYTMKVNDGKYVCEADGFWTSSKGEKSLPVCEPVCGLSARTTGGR
T2 sequence (Q9JJS8 298-685): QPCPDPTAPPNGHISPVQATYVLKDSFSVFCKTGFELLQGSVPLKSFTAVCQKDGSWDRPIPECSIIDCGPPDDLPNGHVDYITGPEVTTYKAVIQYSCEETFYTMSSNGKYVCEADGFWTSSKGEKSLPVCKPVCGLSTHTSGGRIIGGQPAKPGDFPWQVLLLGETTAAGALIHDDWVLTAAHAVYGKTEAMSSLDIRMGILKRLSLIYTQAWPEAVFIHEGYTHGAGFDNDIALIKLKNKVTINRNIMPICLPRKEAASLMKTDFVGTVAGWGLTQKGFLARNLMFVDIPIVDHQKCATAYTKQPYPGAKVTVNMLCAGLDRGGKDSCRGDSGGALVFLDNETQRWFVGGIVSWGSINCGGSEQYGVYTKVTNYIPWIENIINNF

Sequence	IC50 [1] [nM]	IC50 [2] [nM]	koff [3] [s⁻¹]	kon [3] [M⁻¹ s⁻¹]	koff [4] [s⁻¹]	kon [4] [M⁻¹ s⁻¹]	Relative potency [1]	Relative potency (relative human lectin pathway inhibitory efficiency compared to EVO2) [1]	Relative potency [2]	Relative affinity [3]	Relative affinity [4]	lectin pathway inhibition ([5]; 5 minutes after administration) [%]	lectin pathway inhibition ([5]; after 1 hour) [%]	lectin pathway inhibition ([5]; after 4 hours) [%]
KPDFCFLEEDPGPCRALKRRYFYNNQTKQCERFGYGGCFGNMNNFVTLEECKNICEDG (disulfide 5-55, 14-38, 30-51) [EVO21c]	6.2	12.4	–	–	–	–	–	–	–	–	–	–	–	–
KPDFCFLENDPGPCRALARRYFYNNQTKQCERFYYGGCLGNMNNFVTLEECKNICEDG (disulfide 5-55, 14-38, 30-51) [EVO22b]	13.7	9.7	0.00026	1.24e+06	0.000159	975000	–	–	–	–	–	–	–	–
KPDFCFLENDPGVCRAAAVRYFYNNQTKQCERFYYGGCLGNMNNFVTLEECKNICEDG (disulfide 5-55, 14-38, 30-51) [EVO221]	12.7	11	0.000131	1.03e+06	0.000113	664000	–	–	–	–	–	–	–	–
KPDFCFLEEDPGPCRALKRRYFYNNQTKQCERFYYGGCFGNMNNFVTLEECKNICEDG (disulfide 5-55, 14-38, 30-51) [EVO23a]	3.2	14.1	–	–	–	–	43.0	43.1	7.5	–	–	–	–	–
KPDFCFLENDPGPCRALKRRYFYNNQTKQCERFYYGGCLGNMNNFVTLEECKNICEDG (disulfide 5-55, 14-38, 30-51) [EVO22]	4.1	9.9	–	–	–	–	–	–	–	–	–	–	–	–
KPDFCFLENDPGVCRALAVRYFYNNQTKQCERFYYGGCLGNMNNFVTLEECKNICEDG (disulfide 5-55, 14-38, 30-51) [EVO224]	30.9	29.6	0.000617	1.1e+06	0.000184	839000	–	–	–	–	–	–	–	–
KPDFCFLENDPGPCRAAAVRYFYNNQTKQCERFYYGGCLGNMNNFVTLEECKNICEDG (disulfide 5-55, 14-38, 30-51) [EVO223]	9.9	12	4.77e-05	882000	7.53e-05	696000	14.0	14	8.9	33.1	33.6	–	–	–
KPDFCFLENDPGWCRALKRRYFYNNQTKQCERFGYGGCLGNMNNFVTLEECKNICEDG (disulfide 5-55, 14-38, 30-51) [EVO211]	3.1	53.2	6.62e-05	1.54e+06	0.0027	942000	–	–	–	–	–	–	–	–
KPDFCFLEEDPGPCRALKLRYFYNNQTKQCERFGYGGCFGNMNNFVTLEECKNICEDG (disulfide 5-55, 14-38, 30-51) [EVO214a]	10.2	20.3	–	–	–	–	13.6	15.2	5.2	–	–	–	–	–
KPDFCFLEEDPGWCRALKRRYFYNNQTKQCERFGYGGCFGNMNNFVTLEECKNICEDG (disulfide 5-55, 14-38, 30-51) [EVO211a]	9.1	30.6	–	–	–	–	15.2	13.5	3.5	–	–	–	–	–
KPDFCFLENDPGWCRAAKRRYFYNNQTKQCERFGYGGCLGNMNNFVTLEECKNICEDG (disulfide 5-55, 14-38, 30-51) [EVO215]	22.7	–	0.000559	1.84e+06	–	–	–	–	–	–	–	–	–	–
KPDFCFLENDPGWCRAAKLRYFYNNQTKQCERFGYGGCLGNMNNFVTLEECKNICEDG (disulfide 5-55, 14-38, 30-51) [EVO216]	30.9	–	0.000732	963000	–	–	–	–	–	–	–	–	–	–
KPDFCFLENDPGPCRAVKRRYFYNNQTKQCERFKYGGCLGNMNNFETLEECKNICEDG (disulfide 5-55, 14-38, 30-51) [EVO2a]	215	213	0.0021	711000	0.00151	319000	–	–	–	–	–	–	–	–
KPDFCFLENDPGPCRALKRRYFYNNQTKQCERFYYGGCFGNMNNFETLEECKNICEDG (disulfide 5-55, 14-38, 30-51) [EVO25]	5.6	15	0.000438	2.16e+06	0.000826	1.05e+06	–	–	–	–	–	–	–	–
KPDFCFLEEDPGPCRAVKRRYFYNNQTKQCERFGYGGCLGNMNNFETLEECKNICEDG (disulfide 5-55, 14-38, 30-51) [EVO2b]	62.7	34.3	0.00156	790000	0.000942	484000	–	–	–	–	–	–	–	–
KPDFCFLENDPGLCRALKRRYFYNNQTKQCERFGYGGCLGNMNNFVTLEECKNICEDG (disulfide 5-55, 14-38, 30-51) [EVO212]	6.2	46.3	8.26e-05	1.51e+06	0.000618	492000	–	–	–	–	–	–	–	–
KPDFCFLEEDPGPCRALKRRYFYNNQTKQCERFKYGGCLGNMNNFETLEECKNICEDG (disulfide 5-55, 14-38, 30-51) [EVO2d]	60.3	70.9	0.00108	909000	0.000438	405000	–	–	–	–	–	–	–	–
KPDFCFLEEDPGPCRAVKRRYFYNNQTKQCERFYYGGCLGNMNNFETLEECKNICEDG (disulfide 5-55, 14-38, 30-51) [EVO2c]	22.3	34.3	0.00161	1.55e+06	0.000978	747000	–	–	–	–	–	–	–	–
KPDFCFLEEDPGPCRAAKRRYFYNNQTKQCERFYYGGCFGNMNNFVTLEECKNICEDG (disulfide 5-55, 14-38, 30-51) [EVO22d]	5.6	10.4	–	–	–	–	24.7	24.6	10.2	–	–	–	–	–
KPDFCFLEEDPGPCRAVKRRYFYNNQTKQCERFKYGGCLGNMNNFETLEECKNICEDG (disulfide 5-55, 14-38, 30-51) [EVO2, reference compound]	138	106	0.0014	809000	0.00107	310000	–	–	–	–	–	56	40	20
KPDFCFLENDPGPCRAVKRRYFYNNQTKQCERFGYGGCLGNMNNFVTLEECKNICEDG (disulfide 5-55, 14-38, 30-51) [EVO21a]	21.4	39.4	0.000839	1.16e+06	0.00104	515000	–	–	–	–	–	–	–	–
KPDFCFLENDPGLCRAAAVRYFYNNQTKQCERFYYGGCLGNMNNFVTLEECKNICEDG (disulfide 5-55, 14-38, 30-51) [EVO222]	9.8	24.2	4.26e-05	954000	0.000262	463000	–	–	–	–	–	–	–	–
KPDFCFLEEDPGPCRALKRRYFYNNQTKQCERFGYGGCLGNMNNFVTLEECKNICEDG (disulfide 5-55, 14-38, 30-51) [EVO21b]	4.3	7.2	–	–	–	–	31.9	32.1	14.7	–	–	–	–	–
KPDFCFLENDPGPCRAAKRRYFYNNQTKQCERFGYGGCLGNMNNFVTLEECKNICEDG (disulfide 5-55, 14-38, 30-51) [EVO213]	28.3	88.7	0.000524	967000	0.00147	386000	4.9	4.9	1.2	3.3	1.0	–	–	–
KPDFCFLENDPGPCRAAKRRYFYNNQTKQCERFYYGGCLGNMNNFVTLEECKNICEDG (disulfide 5-55, 14-38, 30-51) [EVO22a]	3.7	10.6	9.09e-05	2.04e+06	0.000163	847000	37.1	37.1	10.0	40.1	18.9	–	–	–

From US20260098080A1, “A MODIFIED PROTEIN SCAFFOLD AND USE THEREOF” (EVOLVERITAS BIOTECHNOLÓGIAI KORLÁTOLT FELELOSSÉGU TÁRSASÁG, priority 2022, published 2026)
